Assay results: ChEMBL document CHEMBL4888484, “Replenishing the malaria drug discovery pipeline: Screening and hit evaluation of the MMV Hit Generation Library 1 (HGL1) against asexual blood stage Plasmodium falciparum ,using a nano luciferase reporter read-out” (2022)
Out of some 150,000 compounds screened, about 540 (0.36%) showed an effect of 50% or more. The list shows a part of the results.

tested on: Plasmodium falciparum; test: Primary screen in NF54 nanoGlo assay, in single point, at 2uM, 72h; a lower Z score goes with more inhibition; type: functional, Erythrocyte; settings: timepoint 72 hour

Compound | % Inhibition [%] | Z score
COc1cc(C)c([C@H](C)Nc2nccc3nccnc23)cc1OC | 23 | -2.95
Cn1ccnc1N1CCN(c2ncc(F)cn2)CC1 | -10 | 1.84
CCOC(=O)N1CCN(C2=NC(=O)[C@@H](C#N)C3(CCCC3)N2)CC1 | -9 | 0.92
Cc1nccn1CN1C(=O)c2ccccc2C1=O | -2 | 0.29
NC(=O)c1ccc(-c2nc(-c3ccc(CO)o3)n(C3CCCCC3)n2)cc1 | -5 | 0.9
CCCN1CC(=O)N(c2c(C)cc(C)cc2C)C1=O | -8 | 0.77
c1ccc(N2CCN(C3CCN(C[C@H]4CCCCO4)CC3)CC2)nc1 | 2 | -0.4
CCCN(CC(=O)N1CC(C)OC(C)C1)CC(F)(F)F (stereo not drawn) | -4 | 0.71
Cc1scc(C(=O)N2CCN(CC(=O)Nc3nncs3)CC2)c1C | -2 | 0.35
CC[C@H]1CCCCCN1C(=O)c1ccnc(OC2CCC2)c1 | -5 | 0.5
Cc1ccn(CC(=O)Nc2c(-c3cnn(C)c3)nc3n2CCCC3)n1 | 20 | -2.52
C1CCc2nnc(-c3[nH]nc4c3CCCC4)n2CC1 | 2 | -0.22
COc1cccc(OC)c1-c1ccc2c(=O)[nH]ccc2c1 | -7 | 1.27
CCOC(=O)c1nc2ccccc2nc1N1CCCN(S(=O)(=O)c2ccc(CC)cc2)CC1 | -9 | 0.9
CN(C)[C@H]1CCN(C(=O)c2cnn(-c3nccc(-c4cc5ccccc5o4)n3)c2C2CC2)C1 | -3 | 0.47
CCC(CC)C(=O)NCc1cn(CCOc2ccccc2)nn1 | -10 | 1.63
CN(Cc1ccc(F)cc1)c1ccc(OCC(=O)N2CCc3nc[nH]c3[C@H]2c2ccccn2)nn1 | -10 | 1.98
Cc1cc2c(cc3n2C[C@@](C)(C(=O)NC2CCCCC2)N(Cc2ccccc2Cl)C3=O)o1 | -5 | 0.88
Cc1ccc(N(C)C[C@@H](O)Cc2ccccc2)c(C)c1 | -1 | 0.27
CC(C)c1ccc(S(=O)(=O)N(CCN2CCCCC2)CC(=O)N2CCNCC2)cc1 | 12 | -1.45
CN(Cc1ccsc1)S(=O)(=O)c1cccc2cccnc12 | 6 | -0.82

Compound | % Inhibition [%] | Z score
CCN(CC)c1onc(-c2ccccc2)c1CN(C[C@H]1CCCO1)C(=O)COC | 7 | -0.7
Cc1cc(C(=O)N2CCC3(CCC(=O)N(CCc4c[nH]cn4)C3)CC2)c(C)o1 | -10 | 1.47
CCCn1nc(C(=O)N(CCc2ccccc2)Cc2ccccc2)ccc1=O | -9 | 1.15
NC(=O)C1CCN(c2cc(C3CC(O)C3)ncn2)CC1 (stereo not drawn) | 0 | 0.02
C[C@@H](CN1CCN(C)CC1)OC(=O)c1cccc(F)c1 | -7 | 0.78
COc1cccc(-c2noc([C@@H]3CCCCN3C(=O)c3ccc(C(F)(F)F)cc3)n2)c1 | 1 | -0.18
CCc1nnc2c(S(=O)(=O)N(Cc3ccccc3)c3cccc(Cl)c3)cccn12 | 1 | -0.06
Nc1ccc2c(c1)NC(=O)[C@H](c1ccccc1)O2 | -1 | 0.15
CCc1noc(CN(CC)Cc2c[nH]nc2-c2ccc(F)cc2)n1 | -4 | 0.41
CCOC(=O)N1CCC(NC(=O)c2cc(C(=O)Nc3ccc(F)cc3F)ccc2CO)CC1 | -2 | 0.34
CCN(CCn1cccn1)Cc1nc(-c2ccc(C)s2)oc1C | -5 | 0.4
CC1CN(C)CCC1N(C)C(=O)C1CC(=O)N(Cc2cccc(C(F)(F)F)c2)C1 (stereo not drawn) | -4 | 0.55
COCCCN(CCOC)C(=O)Nc1ccc(C)c(C)c1 | -16 | 1.56
COCC(=O)N(C)[C@@H](CO)c1cc(OC)ccc1Br | 16 | -2
O=C1CN(C(=O)Cc2ccccc2)CC(=O)N1 | 30 | -3.34
CCN(CC(=O)Nc1ccc2c(c1)OCCO2)C(=O)C[C@H](C)c1ccccc1 | -2 | 0.23
CCCCn1cnc2c(-c3ccccc3)cn(CC(=O)NC(C)C)c2c1=O | 2 | -0.33
c1ncn(CCCc2ncnn2-c2ccc3c(c2)CCC3)n1 | -4 | 0.56
Cc1nnc(CNCc2cc(Cl)ccc2OC[C@@H](O)CN2CCCCCC2)[nH]1 | -22 | 2.02
CCc1cnc(CNC2c3ccccc3CCC2n2ccnc2)s1 (stereo not drawn) | -4 | 0.83
CCN(CC)CCC[C@H](C)NC(=O)c1cc(Cl)cc(Cl)c1 | 1 | -0.11

Compound | % Inhibition [%] | Z score
CCC(CC)C1CC(NC(=O)NCC2COCO2)CCO1 (stereo not drawn) | -9 | 1.17
CCCc1nc2ccccc2n1[C@@H](CC)C(=O)N1CCN(c2nc[nH]n2)CC1 | 7 | -1.26
C[C@]1(CO)CCCN(Cc2cc(-c3ncccn3)ccc2OCC(=O)O)C1 | 6 | -0.87
C[C@]1(Cc2cccs2)CCCN1C(=O)Cn1nnc2c1CCCC2 | -11 | 1.37
CC(C)Cc1ccc(CN2CCN3C(=O)OC[C@H]3C2)s1 | -8 | 1.17
CN(Cc1ncc[nH]1)C(=O)c1nc2c(s1)CCC2 | -4 | 0.63
CCC1(O)CN(C(=O)C2CC(F)(F)C2)C1 | -1 | 0.08
COc1cccc(-c2cc(C(=O)NCC(C)(C)CNC(=O)c3cc(-c4cccc(OC)c4)nc4ccccc34)c3ccccc3n2)c1 | 0 | 0.02
Cn1cccc1C(=O)CN1C(=O)NC2(CCCC2)C1=O | 10 | -1.13
Cc1cccc(Cl)c1CC(=O)NS(=O)(=O)CC(C)C | 4 | -0.64
CN(C(=O)Cc1cnc2ccccc2c1)c1ccc(N2CCOCC2)nc1 | -4 | 0.56
O=C(NC[C@H]1CCCN(C(=O)C2(c3cccc(F)c3)CCC2)C1)c1ccccc1 | 0 | 0.02
Cc1ccoc1C(=O)NC[C@H]1CCN(C/C=C/c2ccccc2)C1 | -7 | 0.63
O[C@H](Cc1ccccc1)Cn1ccnn1 | -1 | 0.17
O=C(c1ccc(S(=O)(=O)N2CCOCC2)cc1)N1CCC[C@H]1c1nnc2ccccn12 | -2 | 0.35
CC(C(=O)NCCN1CCCC1)N1C(=O)c2ccccc2C1c1cn(C)c2ccccc12 (stereo not drawn) | 29 | -3.93
C[C@H](NC(=O)C1COc2ccccc2O1)C(=O)Nc1nc2ccccc2[nH]1 (stereo partly drawn) | -4 | 0.63
Cc1ccc(-n2ncc3c(C)nn(C)c(=O)c32)c(C)c1 | 9 | -1.18
CC(OCC1CCCO1)c1nc(-c2[nH]nnc2-c2ccccc2)no1 (stereo not drawn) | -23 | 4.77
Fc1cccc2c(N3CCC(c4ccn[nH]4)CC3)ncnc12 | -7 | 0.92
N#Cc1cc(N2CCC3C(CCCN3Cc3ccccc3)C2)ncn1 (stereo not drawn) | -1 | 0.19

Compound | % Inhibition [%] | Z score
CCn1ncnc1CNC1(c2ccc(Cl)c(Cl)c2)CC1 | -20 | 2.53
Cc1cc(OC2CN(C(=O)c3cc4ccccc4[nH]3)C2)n2ncnc2n1 | 18 | -2.33
CC(C)CN1C(=O)CC[C@@H](C(=O)NCCc2cccs2)[C@@H]1c1cccnc1 | 30 | -3.43
CCCCOc1ccc([C@H]2C(=O)N(C3CCCCC3)CC(=O)N2C2CCCCC2)cc1 | 2 | -0.3
CCC(=O)N1CCc2cc3cccc(C)c3nc21 | -3 | 0.36
O=C(Cc1cccs1)N[C@@H](CN1C(=O)COC1=O)c1ccccc1 | -10 | 1.55
CNc1ncc(C(=O)Nc2ccc(N3CCOCC3)cc2)s1 | -14 | 2.09
Cc1cnc(C(=O)Nc2nc3cc4c(cc3s2)OCCCO4)cn1 | -12 | 1.53
COc1ccc(F)cc1S(=O)(=O)N1CC[C@H](c2cccs2)C1 | -7 | 1.24
CNc1ncccc1C(=O)N1CC[C@]2(OC)CC[C@@H](O)C[C@H]12 | -9 | 1.59
COc1ccccc1-c1ccc(C(=O)N2CCC(N3CCC[C@H](CO)C3)CC2)c(N2CCN(c3ccccc3F)CC2)n1 | 1 | -0.26
COc1cc(Cl)c(C)cc1NS(=O)(=O)c1cc(-c2ccc(=O)[nH]n2)ccc1C | -27 | 2.37
Cc1nc[nH]c1C(=O)N1CCn2nc(CN3CCCCCCC3)cc2C1 | -3 | 0.59
Nc1nc2c(c(-c3cccnc3)n1)CN(C(=O)[C@H]1CCOC1)C2 | -13 | 1.68
CC(C)(C(=O)Nc1ccc2c(c1)OCO2)N(Cc1ccc(F)cc1)C(=O)Cc1ccccc1 | -3 | 0.32
c1ccc(CCc2noc([C@H]3CCn4cncc4C3)n2)cc1 | 2 | -0.27
Cc1cc(=O)n2c(n1)N(S(=O)(=O)c1cc(F)cc(F)c1)CC2 | 1 | -0.1
CC(C)(C)C(=O)Nc1ccc(-c2ccc(OCCF)cn2)cn1 | 10 | -1.12
COc1ccsc1S(=O)(=O)N1CCC(N2CCc3cc(F)ccc32)CC1 | -16 | 3.12
CC(C)Oc1ccc(-c2nc(C(=O)OCCc3cnn(C)c3)cs2)cc1 | -4 | 0.53
CC(=O)N1CCC(S(=O)(=O)NCCOc2ccc(C)cc2)CC1 | 0 | -0.01
